Results published in patent US20180362604A1 (SHIRE HUMAN GENETIC THERAPIES, published 2018).

T1: Myostatin (UniProt O14793 267-375)
T1 construct: bought protein; also called GDF-8; MST
T1 sequence (looked up): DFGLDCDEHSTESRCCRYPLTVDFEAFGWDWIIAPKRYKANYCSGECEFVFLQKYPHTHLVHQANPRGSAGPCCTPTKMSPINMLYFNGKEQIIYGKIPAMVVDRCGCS

T2: BMP-9 (UniProt Q9UK05 320-429)
T2 construct: bought protein; also called bone morphogenic protein-9
T2 sequence (looked up): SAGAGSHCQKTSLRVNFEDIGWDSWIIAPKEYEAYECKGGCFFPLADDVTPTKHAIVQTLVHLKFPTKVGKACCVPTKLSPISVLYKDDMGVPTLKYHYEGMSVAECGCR

T3: Activin A (UniProt P08476 311-426)
T3 sequence (looked up): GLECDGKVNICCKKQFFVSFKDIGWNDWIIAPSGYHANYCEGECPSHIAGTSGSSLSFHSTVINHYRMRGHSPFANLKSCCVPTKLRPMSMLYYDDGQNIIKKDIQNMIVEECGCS

T4: BMP-10 (UniProt O95393 317-424)
T4 construct: bought protein; also called bone morphogenic protein-10
T4 sequence (looked up): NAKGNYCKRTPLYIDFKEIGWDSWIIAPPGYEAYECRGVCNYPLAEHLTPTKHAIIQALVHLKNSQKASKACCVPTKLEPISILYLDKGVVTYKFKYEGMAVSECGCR

B1: FS315K82T-hFcLALA (Fc fusion)
chain: GNCWLRQAKNGRCQVLYKTELSKEECCSTGRLSTSWTEEDVNDNTLFKWMIFNGGAPNCIPCKETCENVDCGPGKKCRMNKTNKPRCVCAPDCSNITWKGPVCGLDGKTYRNECALLKARCKEQPELEVQYQGRCKKTCRDVFCPGSSTCVVDQTNNAYCVTCNRICPEPASSEQYLCGNDGVTYSSACHLRKATCLLGRSIGLAYEGKCIKAKSCEDIQCTGGKKCLWDFKVGRGRCSLCDELCPDSKSDEPVCASDNATYASECAMKEAACSSGVLLEVKHSGSCNSISEDTEEEEEDEDQDYSFPISSILEW[here human IgG1 Fc with changes without letters]
B2: FS315C66S/K75N/C77T-hFcLALA (Fc fusion)
chain: GNCWLRQAKNGRCQVLYKTELSKEECCSTGRLSTSWTEEDVNDNTLFKWMIFNGGAPNCIPCKETSENVDCGPGNKTRMNKKNKPRCVCAPDCSNITWKGPVCGLDGKTYRNECALLKARCKEQPELEVQYQGRCKKTCRDVFCPGSSTCVVDQTNNAYCVTCNRICPEPASSEQYLCGNDGVTYSSACHLRKATCLLGRSIGLAYEGKCIKAKSCEDIQCTGGKKCLWDFKVGRGRCSLCDELCPDSKSDEPVCASDNATYASECAMKEAACSSGVLLEVKHSGSCNSISEDTEEEEEDEDQDYSFPISSILEW[here human IgG1 Fc with changes without letters]
modifications: N-linked glycan on N75 (21.5% occupancy)
notes: hyperglycosylated variant
B3: FS315K(76,81,82)A-hFcLALA (Fc fusion)
chain: GNCWLRQAKNGRCQVLYKTELSKEECCSTGRLSTSWTEEDVNDNTLFKWMIFNGGAPNCIPCKETCENVDCGPGKACRMNAANKPRCVCAPDCSNITWKGPVCGLDGKTYRNECALLKARCKEQPELEVQYQGRCKKTCRDVFCPGSSTCVVDQTNNAYCVTCNRICPEPASSEQYLCGNDGVTYSSACHLRKATCLLGRSIGLAYEGKCIKAKSCEDIQCTGGKKCLWDFKVGRGRCSLCDELCPDSKSDEPVCASDNATYASECAMKEAACSSGVLLEVKHSGSCNSISEDTEEEEEDEDQDYSFPISSILEW[here human IgG1 Fc with changes without letters]
B4: FS315K(81,82)A-hFcLALA (Fc fusion)
chain: GNCWLRQAKNGRCQVLYKTELSKEECCSTGRLSTSWTEEDVNDNTLFKWMIFNGGAPNCIPCKETCENVDCGPGKKCRMNAANKPRCVCAPDCSNITWKGPVCGLDGKTYRNECALLKARCKEQPELEVQYQGRCKKTCRDVFCPGSSTCVVDQTNNAYCVTCNRICPEPASSEQYLCGNDGVTYSSACHLRKATCLLGRSIGLAYEGKCIKAKSCEDIQCTGGKKCLWDFKVGRGRCSLCDELCPDSKSDEPVCASDNATYASECAMKEAACSSGVLLEVKHSGSCNSISEDTEEEEEDEDQDYSFPISSILEW[here human IgG1 Fc with changes without letters]
B5: FS315C66A/K75N/C77T-hFcLALA (Fc fusion)
chain: GNCWLRQAKNGRCQVLYKTELSKEECCSTGRLSTSWTEEDVNDNTLFKWMIFNGGAPNCIPCKETAENVDCGPGNKTRMNKKNKPRCVCAPDCSNITWKGPVCGLDGKTYRNECALLKARCKEQPELEVQYQGRCKKTCRDVFCPGSSTCVVDQTNNAYCVTCNRICPEPASSEQYLCGNDGVTYSSACHLRKATCLLGRSIGLAYEGKCIKAKSCEDIQCTGGKKCLWDFKVGRGRCSLCDELCPDSKSDEPVCASDNATYASECAMKEAACSSGVLLEVKHSGSCNSISEDTEEEEEDEDQDYSFPISSILEW[here human IgG1 Fc with changes without letters]
modifications: N-linked glycan on N75 (39.6% occupancy)
notes: hyperglycosylated variant
B6: FS315G74N/K76S-hFcLALA (Fc fusion)
chain: GNCWLRQAKNGRCQVLYKTELSKEECCSTGRLSTSWTEEDVNDNTLFKWMIFNGGAPNCIPCKETCENVDCGPNKSCRMNKKNKPRCVCAPDCSNITWKGPVCGLDGKTYRNECALLKARCKEQPELEVQYQGRCKKTCRDVFCPGSSTCVVDQTNNAYCVTCNRICPEPASSEQYLCGNDGVTYSSACHLRKATCLLGRSIGLAYEGKCIKAKSCEDIQCTGGKKCLWDFKVGRGRCSLCDELCPDSKSDEPVCASDNATYASECAMKEAACSSGVLLEVKHSGSCNSISEDTEEEEEDEDQDYSFPISSILEW[here human IgG1 Fc with changes without letters]
notes: printed only as 'G74N/K76S'
B7: FS315G74N/K76T-hFcLALA (Fc fusion)
chain: GNCWLRQAKNGRCQVLYKTELSKEECCSTGRLSTSWTEEDVNDNTLFKWMIFNGGAPNCIPCKETCENVDCGPNKTCRMNKKNKPRCVCAPDCSNITWKGPVCGLDGKTYRNECALLKARCKEQPELEVQYQGRCKKTCRDVFCPGSSTCVVDQTNNAYCVTCNRICPEPASSEQYLCGNDGVTYSSACHLRKATCLLGRSIGLAYEGKCIKAKSCEDIQCTGGKKCLWDFKVGRGRCSLCDELCPDSKSDEPVCASDNATYASECAMKEAACSSGVLLEVKHSGSCNSISEDTEEEEEDEDQDYSFPISSILEW[here human IgG1 Fc with changes without letters]
notes: printed only as 'G74N/K76T'
B8: FS315G74N/K76T/P85T-hFcLALA (Fc fusion)
chain: GNCWLRQAKNGRCQVLYKTELSKEECCSTGRLSTSWTEEDVNDNTLFKWMIFNGGAPNCIPCKETCENVDCGPNKTCRMNKKNKTRCVCAPDCSNITWKGPVCGLDGKTYRNECALLKARCKEQPELEVQYQGRCKKTCRDVFCPGSSTCVVDQTNNAYCVTCNRICPEPASSEQYLCGNDGVTYSSACHLRKATCLLGRSIGLAYEGKCIKAKSCEDIQCTGGKKCLWDFKVGRGRCSLCDELCPDSKSDEPVCASDNATYASECAMKEAACSSGVLLEVKHSGSCNSISEDTEEEEEDEDQDYSFPISSILEW[here human IgG1 Fc with changes without letters]
B9: FS315K75N/C77T/K82T-hFcLALA (Fc fusion)
chain: GNCWLRQAKNGRCQVLYKTELSKEECCSTGRLSTSWTEEDVNDNTLFKWMIFNGGAPNCIPCKETCENVDCGPGNKTRMNKTNKPRCVCAPDCSNITWKGPVCGLDGKTYRNECALLKARCKEQPELEVQYQGRCKKTCRDVFCPGSSTCVVDQTNNAYCVTCNRICPEPASSEQYLCGNDGVTYSSACHLRKATCLLGRSIGLAYEGKCIKAKSCEDIQCTGGKKCLWDFKVGRGRCSLCDELCPDSKSDEPVCASDNATYASECAMKEAACSSGVLLEVKHSGSCNSISEDTEEEEEDEDQDYSFPISSILEW[here human IgG1 Fc with changes without letters]
modifications: N-linked glycan on N75 (69.7% occupancy)
notes: hyperglycosylated variant
B10: FS315K82E-hFcLALA (Fc fusion)
chain: GNCWLRQAKNGRCQVLYKTELSKEECCSTGRLSTSWTEEDVNDNTLFKWMIFNGGAPNCIPCKETCENVDCGPGKKCRMNKENKPRCVCAPDCSNITWKGPVCGLDGKTYRNECALLKARCKEQPELEVQYQGRCKKTCRDVFCPGSSTCVVDQTNNAYCVTCNRICPEPASSEQYLCGNDGVTYSSACHLRKATCLLGRSIGLAYEGKCIKAKSCEDIQCTGGKKCLWDFKVGRGRCSLCDELCPDSKSDEPVCASDNATYASECAMKEAACSSGVLLEVKHSGSCNSISEDTEEEEEDEDQDYSFPISSILEW[here human IgG1 Fc with changes without letters]
B11: FS315K(76,81)E-hFcLALA (Fc fusion)
chain: GNCWLRQAKNGRCQVLYKTELSKEECCSTGRLSTSWTEEDVNDNTLFKWMIFNGGAPNCIPCKETCENVDCGPGKECRMNEKNKPRCVCAPDCSNITWKGPVCGLDGKTYRNECALLKARCKEQPELEVQYQGRCKKTCRDVFCPGSSTCVVDQTNNAYCVTCNRICPEPASSEQYLCGNDGVTYSSACHLRKATCLLGRSIGLAYEGKCIKAKSCEDIQCTGGKKCLWDFKVGRGRCSLCDELCPDSKSDEPVCASDNATYASECAMKEAACSSGVLLEVKHSGSCNSISEDTEEEEEDEDQDYSFPISSILEW[here human IgG1 Fc with changes without letters]
B12: FS315K(76,81,82)E/V88E-hFcLALA (Fc fusion)
chain: GNCWLRQAKNGRCQVLYKTELSKEECCSTGRLSTSWTEEDVNDNTLFKWMIFNGGAPNCIPCKETCENVDCGPGKECRMNEENKPRCECAPDCSNITWKGPVCGLDGKTYRNECALLKARCKEQPELEVQYQGRCKKTCRDVFCPGSSTCVVDQTNNAYCVTCNRICPEPASSEQYLCGNDGVTYSSACHLRKATCLLGRSIGLAYEGKCIKAKSCEDIQCTGGKKCLWDFKVGRGRCSLCDELCPDSKSDEPVCASDNATYASECAMKEAACSSGVLLEVKHSGSCNSISEDTEEEEEDEDQDYSFPISSILEW[here human IgG1 Fc with changes without letters]
B13: FS315K(76,82)E-hFcLALA (Fc fusion)
chain: GNCWLRQAKNGRCQVLYKTELSKEECCSTGRLSTSWTEEDVNDNTLFKWMIFNGGAPNCIPCKETCENVDCGPGKECRMNKENKPRCVCAPDCSNITWKGPVCGLDGKTYRNECALLKARCKEQPELEVQYQGRCKKTCRDVFCPGSSTCVVDQTNNAYCVTCNRICPEPASSEQYLCGNDGVTYSSACHLRKATCLLGRSIGLAYEGKCIKAKSCEDIQCTGGKKCLWDFKVGRGRCSLCDELCPDSKSDEPVCASDNATYASECAMKEAACSSGVLLEVKHSGSCNSISEDTEEEEEDEDQDYSFPISSILEW[here human IgG1 Fc with changes without letters]

How the values were obtained:
Myostatin [1] = molecular target: T1, Myostatin; experiment: SPR (BIAcore), anti-human Fc capture, myostatin as analyte
Myostatin [2] = molecular target: T1, Myostatin; experiment: SPR
BMP-9 = molecular target: T2, BMP-9; experiment: SPR (BIAcore), anti-human Fc capture, BMP-9 as analyte
Myostatin [3] = molecular target: T1, Myostatin; experiment: cell-based or functional assay
Activin A = molecular target: T3, Activin A; experiment: cell-based or functional assay
BMP-10 = molecular target: T4, BMP-10; experiment: SPR (BIAcore), anti-human Fc capture, BMP-10 as analyte

| Binder | Kd (Myostatin [1]) [nM] | Kd (Myostatin [2]) [nM] | binding result (BMP-9) | Myostatin IC50, cell-based assay for SMAD pathway (A204 luciferase reporter) (Myostatin [3]) | Activin A IC50, cell-based assay for SMAD pathway (A204 luciferase reporter) (Activin A) | binding result (BMP-10) |
| --- | --- | --- | --- | --- | --- | --- |
| B1 | 0.015 | 0.015 | no binding (tested: 25-0.190 nM) | 0.9 nM | 1.2 nM | no binding (tested: 25-0.190 nM) |
| B2 | – | 0.026 | no binding (tested: 25-0.190 nM) | 1.5 nM and 1.9 nM | 2.1 nM and 4.2 nM | no binding (tested: 25-0.190 nM) |
| B3 | – | – | no binding (tested: 25-0.190 nM) | – | 1.1 nM and 0.7 nM | no binding (tested: 25-0.190 nM) |
| B4 | – | – | no binding (tested: 25-0.190 nM) | – | – | no binding (tested: 25-0.190 nM) |
| B5 | 0.0244 | 0.0244 | no binding (tested: 25-0.190 nM) | 1.5 nM | 2.1 nM | no binding (tested: 25-0.190 nM) |
| B6 | – | 0.0116 | – | 0.9 nM | 1.3 nM | – |
| B7 | – | 0.0111 | – | – | – | – |
| B8 | – | 0.0116 | – | 1 nM | 1.3 nM | – |
| B9 | 0.0403 | 0.0403 | – | 0.7 nM and 1.8 nM | – | no binding (tested: 25-0.190 nM) |
| B10 | – | – | – | – | 0.6 nM | – |
| B11 | 0.011 | – | – | – | – | – |
| B12 | 0.0045 | – | – | 0.6 nM | 0.6 nM | – |
| B13 | – | – | – | – | – | no binding (tested: 25-0.190 nM) |

Values joined by “and” are separate entries in the source; they are usually repeats but may differ in a detail not shown here. Identical values can stand only once.
